Our source for the binding signal values is PMC10668032.

The list shows a part of the results. At the low end of the ranking, values are background and their order means little.

This experiment concerns the target SIX1 homeodomain (reference allele) (UniProt Q15475). The experiment can be described thus: universal protein binding microarray. The note with it: Universal all-10-mer PBM (8x60K, AMADID 030236), 300 nM GST-tagged protein, Alexa Fluor 488 anti-GST; buffer, salt, pH and temperature not stated; high values mean tight binding; most listed sequences are background and not binding sites; double strand, one strand shown.
On to AATCGGCG, for which the binding signal was -0.127 E-score.
For GCAGTTTA, the binding signal was -0.237 E-score.
With ATATAACA, the binding signal was determined as 0.178 E-score.
With GAACTGAC the figure was -0.149 E-score; with AGCCAAAC, -0.188 E-score.
With CAATACTG, the binding signal was 0.0673 E-score.
As for ACAGCGTC, the binding signal is -0.0483 E-score.
Take CACAAACG: the binding signal is -0.0464 E-score.
For CTGAGACA, the binding signal was 0.1 E-score.
Consider ATAGGTAC, for which the binding signal was found to be 0.16 E-score.
Take CCGCAACG: the binding signal was -0.00732 E-score.
With CAACCCCC the figure was -0.0371 E-score.
AGGGGGGG: the binding signal was -0.124 E-score.
For the sequence AGTCCCAC, the binding signal was -0.05 E-score.
Consider AACAGTGC, for which the binding signal is -0.0978 E-score.
Take ATCCCGCC: the binding signal worked out at 0.27 E-score.
With AAGTAATG the figure was -0.179 E-score; with ACCGCGGG, 0.145 E-score; with CATGACAG, -0.172 E-score.
Regarding CAGGACTA, the binding signal was -0.121 E-score.
For CCATGACG, the binding signal was -0.203 E-score.
Take GTTAGGGA: the binding signal is -0.0668 E-score.
For the sequence ATTGCGCA, the binding signal is -0.136 E-score.
On to AAGTAGTA, for which the binding signal came to 0.0018 E-score.
On to CGTCTATC, for which the binding signal turned out to be 0.0885 E-score.
Regarding CGAGCTGA, the binding signal was 0.184 E-score.
For ATTTGTCG, the binding signal is -0.157 E-score.
On to AAGGACGG, for which the binding signal was -0.0918 E-score.
On to AGTGGACG, for which the binding signal is -0.204 E-score.
Take CCGTATGA: the binding signal is 0.217 E-score.
Consider TCTATTCA, for which the binding signal stood at 0.048 E-score.
Then CGAGGGAC, with -0.224 E-score; and TCCCAGCA, with -0.141 E-score.
Regarding AGCGTGGG, the binding signal was -0.0712 E-score.
CCAAAACG: the binding signal was -0.184 E-score.
For GTACGCTA, the binding signal is -0.157 E-score.
On to AGTCAACG, for which the binding signal was -0.363 E-score.
As for ACCTTTCT, the binding signal was -0.0243 E-score.
As to ATCCATTG, the binding signal was determined as 0.271 E-score.
As to CAACAAGA, the binding signal was -0.012 E-score.
On to AACGCGAG, for which the binding signal is -0.0233 E-score.
With CACCGCCG the figure was 0.0571 E-score; with ATAGGTAA, 0.0604 E-score; with CTAGGAGC, -0.121 E-score.
Consider AGATTCTG, for which the binding signal was found to be 0.0305 E-score.
For the sequence ATTTTCCC, the binding signal is -0.14 E-score.
As to AATGCACC, the binding signal is -0.124 E-score.
Take CGAAATGC: the binding signal is -0.0707 E-score.
For AAGGAACT, the binding signal was -0.253 E-score.
Regarding GGACTGGA, the binding signal was -0.231 E-score.
For AGCGAGCC, the binding signal was -0.037 E-score.
On to CAGATATG, for which the binding signal stood at 0.315 E-score.
With CCCTAACC, the binding signal is -0.0707 E-score.
CTGCCACC: the binding signal is -0.0351 E-score.
Turning to TGCAAAAA, the binding signal was -0.119 E-score.
In the case of CGGAATAG, the binding signal amounted to 0.105 E-score.
For the sequence CCTGGGCG, the binding signal is -0.0676 E-score.
On to ATTAGCTC, for which the binding signal is -0.114 E-score.
CCACTCCA: the binding signal was -0.0598 E-score.
For GACGGGCA, the binding signal came to 0.0652 E-score.
As for ACGGACAG, the binding signal was -0.16 E-score.
Turning to TGCAACCA, the binding signal was -0.0759 E-score.
With ACCGGTTG the figure was 0.0808 E-score; with GTATTAGA, 0.237 E-score; with CGAGACAC, 0.176 E-score.
CGGTGCCC: the binding signal is -0.0466 E-score.
Turning to CTAATCCC, the binding signal worked out at 0.215 E-score.
Turning to CCGCATGC, the binding signal came to 0.0337 E-score.
With CGCAAGAA, the binding signal was determined as 0.0307 E-score.
CGGGCGAG: the binding signal is -0.168 E-score.
Then ATCTGGCG, with 0.114 E-score.
Take GGCCCTAC: the binding signal was -0.117 E-score.
With ACTAAAGC, the binding signal was -0.198 E-score.
With ACTCTTAT the figure was 0.103 E-score; with ACAGTCGG, -0.075 E-score; with CTCTGAGC, -0.0135 E-score.
On to ATGTCTTC, for which the binding signal is -0.117 E-score.
Consider CCAATCTC, for which the binding signal is 0.0567 E-score.
As for CCCGAACA, the binding signal is -0.0584 E-score.
Consider GAAAGACC, for which the binding signal is -0.241 E-score.
Turning to ACTATGAC, the binding signal was -0.104 E-score.
With CACCAGCG, the binding signal is 0.0438 E-score.
With AAGCTAAA the figure was -0.255 E-score; with ATATCAAT, 0.421 E-score.
For the sequence AAGGAATA, the binding signal is -0.00178 E-score.
As to GAGACGCC, the binding signal is 0.155 E-score.
With TGATATAA the figure was 0.297 E-score.
Turning to ATGAATTG, the binding signal is -0.16 E-score.
Take GCTCCCTA: the binding signal is -0.132 E-score.
As for AGAGAGCC, the binding signal is -0.187 E-score.
For the sequence CAACGGAG, the binding signal turned out to be 0.0127 E-score.
Then AGAGGCAA, with -0.0842 E-score; and TCGGGTAA, with 0.0661 E-score.
For ATTAGTTC, the binding signal stood at 0.000865 E-score.
For the sequence CTGCCATA, the binding signal is 0.0315 E-score.
Regarding GAGACCTC, the binding signal was determined as 0.118 E-score.
As to CGTTTGGC, the binding signal is -0.269 E-score.
With ATACCCTA, the binding signal is 0.452 E-score.
Take GTTTCTAA: the binding signal is -0.00822 E-score.
Turning to AAAGCTGC, the binding signal was -0.151 E-score.
Turning to ATGGTGAG, the binding signal came out at 0.113 E-score.
Regarding GGTCCGTA, the binding signal stood at 0.0125 E-score.
For the sequence GCAGTAGC, the binding signal was -0.0595 E-score.
Consider AACTGTGA, for which the binding signal is -0.0846 E-score.
Then CTTCACAA, with -0.174 E-score.
Then CAAGAGCG, with -0.135 E-score.
As for CAGTCGAC, the binding signal was -0.0279 E-score.
As to GGGGCAGA, the binding signal is 0.0389 E-score.
Turning to CCCTCGGA, the binding signal was 0.183 E-score.
